At least one structure is not confirmed: it was looked up by name or label, or the drawing left a doubt.
Target: T1, Spike protein RBD domain (SRBD - wt) (Severe acute respiratory syndrome coronavirus 2, UniProt P0DTC2)
T1 construct: using Spike protein RBD domain as a target
Format: binding, SARS-COV-2

`COC[C@H](NC(=O)[C@H]1c2ccccc2C(=O)N(CCCNC(=O)CNC(=O)Cc2ccc(CNC(=O)[C@H](C)NC(=O)[C@H]3c4ccccc4C(=O)N(CCCNC(=O)CN)[C@@H]3c3ccccc3)cc2)[C@@H]1c1ccccc1)C(=O)NCc1ccc(CC(=O)NCCCN2C(=O)c3ccccc3[C@H](C(=O)N[C@H](CCCCN)C(=O)NCC(=O)NCc3ccc(CC(=O)N[C@H](CCCCN)C(=O)NCCCN4C(=O)c5ccccc5[C@H](C(=O)N[C@H](C(=O)NCc5ccc(CC(=O)N[C@H](CCC(=O)O)C(=O)NCCCN6C(=O)c7ccccc7[C@H](C(=O)N[C@@H](Cc7ccccc7)C(=O)NCc7ccc(CC(=O)NCCCN8C(=O)c9ccccc9[C@H](C(=O)N[C@H](C)C(=O)N[C@@H](Cc9ccc(F)cc9)C(=O)NCc9ccc(CC(=O)N[C@H](C)C(=O)NCCCN%10C(=O)c%11ccccc%11[C@H](C(=O)N[C@@H](C)C(=O)NCc%11ccc(CC(=O)N[C@H](CCCCN)C(=O)NCCCN%12C(=O)c%13ccccc%13[C@H](C(=O)N[C@@H](Cc%13ccccc%13)C(=O)NCc%13ccc(CC(N)=O)cc%13)[C@H]%12c%12ccc(CCC(=O)O)cc%12)cc%11)[C@H]%10c%10cccc(Oc%11ccccc%11)c%10)cc9)[C@H]8c8ccccc8)cc7)[C@H]6c6ccc(CCC(=O)O)cc6)cc5)C(C)C)[C@H]4c4ccc(CCC(=O)O)cc4)cc3)[C@H]2c2ccccc2)cc1` [Technein 16838-89-6] and `COC[C@H](NC(=O)[C@@H](CCCCN)NC(=O)[C@H]1c2ccccc2C(=O)N(CCCNC(=O)Cc2ccc(CNC(=O)[C@H](C)NC(=O)[C@H]3c4ccccc4C(=O)N(CCCNC(=O)[C@@H](C)NC(=O)Cc4ccc(CNC(=O)CNC(=O)[C@H]5c6ccccc6C(=O)N(CCCNC(=O)[C@@H](CCC(=O)O)NC(=O)Cc6ccc(CNC(=O)[C@H](Cc7ccc(F)cc7)NC(=O)[C@@H](CCC(=O)O)NC(=O)[C@H]7c8ccccc8C(=O)N(CCCNC(=O)Cc8ccc(CNC(=O)[C@H](Cc9ccccc9)NC(=O)[C@@H](C)NC(=O)[C@H]9c%10ccccc%10C(=O)N(CCCNC(=O)Cc%10ccc(CNC(=O)[C@@H](NC(=O)[C@H]%11c%12ccccc%12C(=O)N(CCCNC(=O)[C@@H](CCC(=O)O)NC(=O)Cc%12ccc(CNC(=O)[C@H](Cc%13ccccc%13)NC(=O)[C@@H](CCCCN)NC(=O)[C@H]%13c%14ccccc%14C(=O)N(CCCNC(=O)Cc%14ccc(CNC(=O)[C@H](C)NC(=O)[C@H]%15c%16ccccc%16C(=O)N(CCCNC(=O)[C@@H](C)N)[C@@H]%15c%15ccc(CCC(=O)O)cc%15)cc%14)[C@@H]%13c%13cccc(Oc%14ccccc%14)c%13)cc%12)[C@@H]%11c%11cccnc%11)C(C)C)cc%10)[C@@H]9c9ccccc9)cc8)[C@@H]7c7cccnc7)cc6)[C@@H]5c5ccccc5)cc4)[C@@H]3c3cccc(Oc4ccccc4)c3)cc2)[C@@H]1c1ccc(O)cc1)C(=O)NCc1ccc(CC(N)=O)cc1` [Technein 16838-89-9] are within 1.5-fold of each other in Kd: 210 nM for the first, 199 nM for the second.

Going from `CC(C)[C@H](NC(=O)[C@@H](CCCCN)NC(=O)[C@H]1c2ccccc2C(=O)N(CCCNC(=O)Cc2ccc(CNC(=O)[C@H](Cc3ccc(F)cc3)NC(=O)[C@@H](C)NC(=O)[C@H]3c4ccccc4C(=O)N(CCCNC(=O)Cc4ccc(CNC(=O)[C@H](CC5CC5)NC(=O)[C@H]5c6ccccc6C(=O)N(CCCNC(=O)CNC(=O)Cc6ccc(CNC(=O)[C@@H](NC(=O)[C@H]7c8ccccc8C(=O)N(CCCNC(=O)[C@@H](CCCCN)NC(=O)Cc8ccc(CNC(=O)[C@H](Cc9ccc(F)cc9)NC(=O)[C@H]9c%10ccccc%10C(=O)N(CCCNC(=O)CNC(=O)Cc%10ccc(CNC(=O)[C@@H](NC(=O)[C@H]%11c%12ccccc%12C(=O)N(CCCNC(=O)CNC(=O)Cc%12ccc(CNC(=O)[C@H](C)NC(=O)[C@H]%13c%14ccccc%14C(=O)N(CCCNC(=O)[C@@H](C)N)[C@@H]%13c%13ccc(CCC(=O)O)cc%13)cc%12)[C@@H]%11c%11cccc(Oc%12ccccc%12)c%11)C(C)C)cc%10)[C@@H]9c9ccc(O)cc9)cc8)[C@@H]7c7ccc(CCC(=O)O)cc7)C(C)C)cc6)[C@@H]5c5cccnc5)cc4)[C@@H]3c3ccccc3)cc2)[C@@H]1c1ccccc1)C(=O)NCc1ccc(CC(=O)N[C@H](C)C(=O)NCCCN2C(=O)c3ccccc3[C@H](C(=O)N[C@@H](CC3CC3)C(=O)NCc3ccc(CC(N)=O)cc3)[C@H]2c2ccc(CCC(=O)O)cc2)cc1` [Technein 16838-89-10] to `COC[C@H](NC(=O)[C@H]1c2ccccc2C(=O)N(CCCNC(=O)[C@@H](CCCCN)NC(=O)Cc2ccc(CNC(=O)[C@H](C)NC(=O)[C@@H](C)NC(=O)[C@H]3c4ccccc4C(=O)N(CCCNC(=O)Cc4ccc(CNC(=O)[C@H](C)NC(=O)[C@H]5c6ccccc6C(=O)N(CCCNC(=O)[C@H](N)CCC(=O)O)[C@@H]5c5ccc(CCC(=O)O)cc5)cc4)[C@@H]3c3ccccc3)cc2)[C@@H]1c1ccc(CCC(=O)O)cc1)C(=O)NCc1ccc(CC(=O)N[C@H](CCCCN)C(=O)NCCCN2C(=O)c3ccccc3[C@H](C(=O)N[C@H](C(=O)NCc3ccc(CC(=O)NCC(=O)NCCCN4C(=O)c5ccccc5[C@H](C(=O)N[C@@H](CC5CC5)C(=O)NCc5ccc(CC(=O)NCC(=O)NCCCN6C(=O)c7ccccc7[C@H](C(=O)N[C@@H](Cc7ccccc7)C(=O)NCc7ccc(CC(=O)NCCCN8C(=O)c9ccccc9[C@H](C(=O)N[C@H](CCCCN)C(=O)N[C@H](C(=O)NCc9ccc(CC(=O)NCCCN%10C(=O)c%11ccccc%11[C@H](C(=O)NCC(=O)N[C@@H](Cc%11ccc(F)cc%11)C(=O)NCc%11ccc(CC(N)=O)cc%11)[C@H]%10c%10ccc(CCC(=O)O)cc%10)cc9)C(C)C)[C@H]8c8ccccc8)cc7)[C@H]6c6cccnc6)cc5)[C@H]4c4cccnc4)cc3)C(C)C)[C@H]2c2ccc(CCC(=O)O)cc2)cc1` [Technein 16838-89-11], the Kd rises from 92 nM to 310 nM (3.4-fold). The first binds more tightly here.

`COC[C@H](NC(=O)[C@H]1c2ccccc2C(=O)N(CCCNC(=O)CNC(=O)Cc2ccc(CNC(=O)[C@H](C)NC(=O)[C@@H](CCCCN)NC(=O)[C@H]3c4ccccc4C(=O)N(CCCN)[C@@H]3c3cccc(Oc4ccccc4)c3)cc2)[C@@H]1c1ccccc1)C(=O)NCc1ccc(CC(=O)N[C@H](CCCCN)C(=O)NCCCN2C(=O)c3ccccc3[C@H](C(=O)N[C@@H](COC)C(=O)NCc3ccc(CC(=O)NCCCN4C(=O)c5ccccc5[C@H](C(=O)N[C@H](CCC(=O)O)C(=O)N[C@@H](CC5CC5)C(=O)NCc5ccc(CC(=O)NCCCN6C(=O)c7ccccc7[C@H](C(=O)N[C@H](CCC(=O)O)C(=O)N[C@H](C(=O)NCc7ccc(CC(=O)NCC(=O)NCCCN8C(=O)c9ccccc9[C@H](C(=O)N[C@@H](Cc9ccccc9)C(=O)NCc9ccc(CC(=O)NCCCN%10C(=O)c%11ccccc%11[C@H](C(=O)N[C@H](CCC(=O)O)C(=O)N[C@@H](Cc%11ccccc%11)C(=O)NCc%11ccc(CC(=O)NCCCN%12C(=O)c%13ccccc%13[C@H](C(=O)NCC(=O)N[C@@H](CC%13CC%13)C(=O)NCc%13ccc(CC(N)=O)cc%13)[C@H]%12c%12ccc(O)cc%12)cc%11)[C@H]%10c%10ccc(O)cc%10)cc9)[C@H]8c8cccnc8)cc7)C(C)C)[C@H]6c6cccc(Oc7ccccc7)c6)cc5)[C@H]4c4ccccc4)cc3)[C@H]2c2ccc(CCC(=O)O)cc2)cc1` [Technein 16838-89-13] and `CC(C)[C@H](NC(=O)[C@@H](CCCCN)NC(=O)[C@H]1c2ccccc2C(=O)N(CCCNC(=O)Cc2ccc(CNC(=O)[C@H](CC3CC3)NC(=O)[C@H]3c4ccccc4C(=O)N(CCCNC(=O)[C@@H](C)NC(=O)Cc4ccc(CNC(=O)[C@H](C)NC(=O)[C@H]5c6ccccc6C(=O)N(CCCNC(=O)[C@@H](CCCCN)NC(=O)Cc6ccc(CNC(=O)[C@@H](NC(=O)[C@H]7c8ccccc8C(=O)N(CCCNC(=O)[C@@H](CCCCN)NC(=O)Cc8ccc(CNC(=O)[C@H](CC9CC9)NC(=O)[C@@H](CCCCN)NC(=O)[C@H]9c%10ccccc%10C(=O)N(CCCNC(=O)Cc%10ccc(CNC(=O)[C@H](Cc%11ccccc%11)NC(=O)[C@@H](CCCCN)NC(=O)[C@H]%11c%12ccccc%12C(=O)N(CCCNC(=O)Cc%12ccc(CNC(=O)[C@H](C)NC(=O)[C@H]%13c%14ccccc%14C(=O)N(CCCNC(=O)CN)[C@@H]%13c%13ccccc%13)cc%12)[C@@H]%11c%11cccc(Oc%12ccccc%12)c%11)cc%10)[C@@H]9c9ccc(CCC(=O)O)cc9)cc8)[C@@H]7c7ccc(CCC(=O)O)cc7)C(C)C)cc6)[C@@H]5c5ccccc5)cc4)[C@@H]3c3cccc(Oc4ccccc4)c3)cc2)[C@@H]1c1ccccc1)C(=O)NCc1ccc(CC(=O)NCCCN2C(=O)c3ccccc3[C@H](C(=O)NCC(=O)N[C@@H](Cc3ccc(F)cc3)C(=O)NCc3ccc(CC(N)=O)cc3)[C@H]2c2ccc(CCC(=O)O)cc2)cc1` [Technein 16838-89-14] are within 1.5-fold of each other in Kd: 235 nM for the first, 216 nM for the second.

With `COC[C@H](NC(=O)CNC(=O)[C@H]1c2ccccc2C(=O)N(CCCNC(=O)Cc2ccc(CNC(=O)[C@H](C)NC(=O)[C@H]3c4ccccc4C(=O)N(CCCNC(=O)[C@@H](CCC(=O)O)NC(=O)Cc4ccc(CNC(=O)CNC(=O)[C@H]5c6ccccc6C(=O)N(CCCNC(=O)[C@@H](CCCCN)NC(=O)Cc6ccc(CNC(=O)[C@H](Cc7ccccc7)NC(=O)[C@@H](C)NC(=O)[C@H]7c8ccccc8C(=O)N(CCCNC(=O)Cc8ccc(CNC(=O)[C@H](Cc9ccc(F)cc9)NC(=O)[C@H]9c%10ccccc%10C(=O)N(CCCNC(=O)CNC(=O)Cc%10ccc(CNC(=O)[C@H](COC)NC(=O)[C@H]%11c%12ccccc%12C(=O)N(CCCNC(=O)CNC(=O)Cc%12ccc(CNC(=O)[C@H](C)NC(=O)CNC(=O)[C@H]%13c%14ccccc%14C(=O)N(CCCN)[C@@H]%13c%13ccc(CCC(=O)O)cc%13)cc%12)[C@@H]%11c%11ccccc%11)cc%10)[C@@H]9c9ccc(O)cc9)cc8)[C@@H]7c7ccccc7)cc6)[C@@H]5c5ccc(CCC(=O)O)cc5)cc4)[C@@H]3c3cccnc3)cc2)[C@@H]1c1ccc(CCC(=O)O)cc1)C(=O)NCc1ccc(CC(=O)NCCCN2C(=O)c3ccccc3[C@H](C(=O)NCC(=O)N[C@@H](CC3CC3)C(=O)NCc3ccc(CC(N)=O)cc3)[C@H]2c2ccc(O)cc2)cc1` [Technein 16838-89-15] the Kd was 200 nM.

— US20260042867A1, “ANTIBODY REPURPOSING” (priority 2022, published 2026)
